No constants are given. Whether binding was seen depends on the method and setting. In cells and extracts the contact can be indirect. Some results given as binding are weak or reduced against the parent protein; the word gives no strength. Where a sequence is shown, tags or fusion partners need not be part of it.
B1: human PRRT2-HA (Proline-Rich Transmembrane Protein 2, HA-tagged) (protein, UniProt Q7Z6L0 1-340)
chain: MAASSSEISEMKGVEESPKVPGEGPGHSEAETGPPQVLAGVPDQPEAPQPGPNTTAAPVDSGPKAGLAPETTETPAGASETAQATDLSLSPGGESKANCSPEDPCQETVSKPEVSKEATADQGSRLESAAPPEPAPEPAPQPDPRPDSQPTPKPALQPELPTQEDPTPEILSESVGEKQENGAVVPLQAGDGEEGPAPEPHSPPSKKSPPANGAPPRVLQQLVEEDRMRRAHSGHPGSPRGSLSRHPSSQLAGPGVEGGEGTQKPRDYIILAILSCFCPMWPVNIVAFAYAVMSRNSLQQGDVDGAQRLGRVAKLLSIVALVGGVLIIIASCVINLGVYK
B2: human PRRT2(250-340), HA-tagged C-terminal truncation (domain or fragment, UniProt Q7Z6L0 250-340)
chain: QLAGPGVEGGEGTQKPRDYIILAILSCFCPMWPVNIVAFAYAVMSRNSLQQGDVDGAQRLGRVAKLLSIVALVGGVLIIIASCVINLGVYK
B3: human PRRT2(1-268), HA-tagged N-terminal truncation (domain or fragment, UniProt Q7Z6L0 1-268)
chain: MAASSSEISEMKGVEESPKVPGEGPGHSEAETGPPQVLAGVPDQPEAPQPGPNTTAAPVDSGPKAGLAPETTETPAGASETAQATDLSLSPGGESKANCSPEDPCQETVSKPEVSKEATADQGSRLESAAPPEPAPEPAPQPDPRPDSQPTPKPALQPELPTQEDPTPEILSESVGEKQENGAVVPLQAGDGEEGPAPEPHSPPSKKSPPANGAPPRVLQQLVEEDRMRRAHSGHPGSPRGSLSRHPSSQLAGPGVEGGEGTQKPRDY
B4: mouse ATP1B2 (endogenous, brain) (protein, UniProt P14231 1-290)
chain: MVIQKEKKSCGQVVEEWKEFVWNPRTHQFMGRTGTSWAFILLFYLVFYGFLTAMFSLTMWVMLQTVSDHTPKYQDRLATPGLMIRPKTENLDVIVNISDTESWGQHVQKLNKFLEPYNDSIQAQKNDVCRPGRYYEQPDNGVLNYPKRACQFNRTQLGDCSGIGDPTHYGYSTGQPCVFIKMNRVINFYAGANQSMNVTCVGKRDEDAENLGHFVMFPANGSIDLMYFPYYGKKFHVNYTQPLVAVKFLNVTPNVEVNVECRINAANIATDDERDKFAGRVAFKLRINKT

How the values were obtained:
[1] = target: T1, mouse PRRT2-V5 (endogenous PRRT2 with a V5 tag, Prrt2-V5 knock-in mouse) (mouse (endogenous in brain of Prrt2-V5 knock-in mice)) (UniProt E9PUL5); test: co-IP; brain membrane fractions of Prrt2-V5 knock-in or wild-type mice solubilised in 0.3% DDM; ~200 ug protein with V5-Trap (anti-V5 nanobody) magnetic beads, 4°C, 1.5 h; washes with 0.15% DDM; immunoblot
T1 sequence: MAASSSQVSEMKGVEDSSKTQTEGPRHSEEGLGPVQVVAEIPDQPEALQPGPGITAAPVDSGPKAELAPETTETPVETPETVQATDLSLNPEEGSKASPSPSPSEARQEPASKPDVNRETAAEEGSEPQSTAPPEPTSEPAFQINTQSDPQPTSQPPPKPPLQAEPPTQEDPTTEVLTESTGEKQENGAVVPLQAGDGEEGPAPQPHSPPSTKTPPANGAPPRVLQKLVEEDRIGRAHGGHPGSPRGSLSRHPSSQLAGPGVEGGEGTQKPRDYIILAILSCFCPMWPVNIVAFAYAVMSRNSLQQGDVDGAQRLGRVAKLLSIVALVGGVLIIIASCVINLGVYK

[2] = target: T2, human PRRT2(1-268), HA-tagged N-terminal truncation (human) (UniProt Q7Z6L0); test: co-IP; HEK293T co-transfected with Flag-tagged Nav channel and HA-tagged PRRT2 construct; lysis in 20 mM Tris-HCl, 150 mM NaCl, 0.5% DDM; 400 ug protein with anti-HA nanobody magnetic beads, 4°C, 1 h; washes with 0.05% DDM; immunoblot
T2 sequence: B3 chain

[3] = target: T3, human PRRT2-HA (Proline-Rich Transmembrane Protein 2, HA-tagged) (human) (UniProt Q7Z6L0); test: as above
T3 sequence: B1 chain

[4] = target: T4, human PRRT2(250-340), HA-tagged C-terminal truncation (human) (UniProt Q7Z6L0); test: as above
T4 sequence: B2 chain

[5] = target: Flag-Nav1.2 (Flag-tagged voltage-gated sodium channel Nav1.2 alpha subunit) (UniProt Q99250); test: co-IP; HEK293T co-transfected with Flag-tagged Nav channel and HA-tagged PRRT2 construct; lysis in 20 mM Tris-HCl, 150 mM NaCl, 0.5% DDM; 400 ug protein with anti-Flag magnetic beads, 4°C, 1 h; washes with 0.05% DDM; immunoblot

| Molecule | binding [1] | binding [5] | other results |
| --- | --- | --- | --- |
| mouse Nav1.2 (endogenous, brain) (from UniProt B1AWN6 1-2006) | binds |  |  |
| Flag-Nav1.2 (Flag-tagged voltage-gated sodium channel Nav1.2 alpha subunit) (from UniProt Q99250 1-2005) |  |  | binding [2]: no binding; binding [3]: binds; binding [4]: binds |
| B1 |  | binds |  |
| B2 |  | binds |  |
| B3 |  | no binding |  |
| B4 | no binding |  |  |

Reference: paper PMC13568701
